Experimental data published in the RNAGym collection of RNA variant scans (doi:10.1093/nar/gkz1192).
Read counts are not given, so values of variants with three or more changes are uncertain.

B1: CPEB3 Ribozyme (parent)
chain: UAACAGGGGGCCACAGCAGAAGCGUUCACGUCGCAGCCCCUGUCAGAUUCUGGUGAAUCUGCGAAUUCUGCUGUAUAUCUC

Variants of: B1
Assay: self-cleavage, relative activity (ratio to wild type); higher = more cleavage; in vitro, sequencing
Procedure, shortened: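 Relative activity was defined as the cleaved/total read fraction for a variant divided by the same fraction for the unmutated ribozyme. CPEB3 self-cleaving ribozyme libraries were made by rounds of error-prone PCR, barcoded, and transcribed in vitro with T7 RNA polymerase for 5 hours at 37°C, and cleavage ran through transcription plus a 15 min DNase I step before EDTA. Illumina sequencing of template-switched reverse transcripts gave the reads, and DNA sequencing mapped the barcodes. Averages come from three batches, using variants with at least 5 reads.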
In the case of UAACAGGGGGCCACAGCAGAAGCGUUCACGUCGCUGACCCUGUCAGAUUCUGGCGAAUCUGCGAAUUCUGCUGUUUAUCUC [A35U C37A U54C A75U], the self-cleavage is reported as 0.15.
In the case of UAACAGGGGGCCACAGCAGAAGCGUUCACGUCGCUGCACCUGGCAGAUUCUGGUGAAUCUGCGAAUUCUGCUGUAUAUCUC [A35U C38A U43G], the self-cleavage is reported as 0.17.
With UAACAGGGGGCCACAGCAGAAGCGUUCACGUCGCUGCACCUGUCAGAUUCUGGUGAAUCAGCGAAUUCUGCUGAAUAUCUC [A35U C38A U60A U74A] the self-cleavage was 0.18.
In the case of UAACAGGGGGCCACAGCAGAAGCGUUCACGUCGCUGCUCCUGUCAGAUUCUGGUGAAUCUGCGUAUUCCGCUGUAUAUCUC [A35U C38U A64U U69C], the self-cleavage is reported as 0.09.
UAACAGGGGGCCACAGCAGAAGCGUUCACGUCGCUGCUCCUGUAAGAUUCUGGUGAAUCUGCGAAUUCUGCCGUAUACCUC [A35U C38U C44A U72C U78C] showed a self-cleavage of 0.16.
With UAACAGGGGGCCACAGCAGAAGCGUUCACGUCGCUGCUCCUGUCAGAUUCCGGUGAAUCUGCGAAUUCUGCAGUAUAUCUC [A35U C38U U51C U72A] the self-cleavage was 0.15.
UAACAGGGGGCCACAGCAGAAGCGUUCACGUCGCUGCUCCUGUCAGAUUCUGGUGAAUCUGCGAAUCCUGCUGUAUACCUC [A35U C38U U67C U78C] showed a self-cleavage of 0.07.
In the case of UAACAGGGGGCCACAGCAGAAGCGUUCACGUCGCUGCCACUGUCAGAUUCUGGUGACUCUGCGAAUUCUGCUGUAUAUCUC [A35U C39A A57C], the self-cleavage is reported as 0.09.
UAACAGGGGGCCACAGCAGAAGCGUUCACGUCGCUGCCGCUGUCAGAUUCUGGAGAAUCUGCGAAUCCUGCUGUAUAUCUC [A35U C39G U54A U67C] gave a self-cleavage of 0.05.
UAACAGGGGGCCACAGCAGAAGCGUUCACGUCGCUGCCUCUGUCAGAUUCUGGUGGAUCUGCGAAUACUGCUGUAUAUCUC [A35U C39U A56G U67A] gave a self-cleavage of 0.09.
UAACAGGGGGCCACAGCAGAAGCGUUCACGUCGCUGCCUCUGUCAGAUUCUGGUGAAUCUGCGAAUUAUGCUGUAUAUCUC [A35U C39U C68A] gave a self-cleavage of 0.44.
For UAACAGGGGGCCACAGCAGAAGCGUUCACGUCGCUGCCCAUGUCAGAUUCUGGUGAAUCUGCGAUUUCUGCUGAAUAUCUC [A35U C40A A65U U74A], the self-cleavage was 0.32.
Variant UAACAGGGGGCCACAGCAGAAGCGUUCACGUCGCUGCCCAUGACAGAUCCUGGUGGACCUGUGAAUUCUGCUGUAUAUCUC [A35U C40A U43A U49C A56G U58C C62U] has a self-cleavage of 0.06.
For UAACAGGGGGCCACAGCAGAAGCGUUCACGUCGCUGCCCUUGUCGGAUUCUGGUGAAUCUGCGAAUUCUGCUGUAUAUCUC [A35U C40U A45G], the self-cleavage was 0.33.
UAACAGGGGGCCACAGCAGAAGCGUUCACGUCGCUGCCCUUGUCAGAUUCUGGUGGAUCUGCGAAUUCAGCUGUAUACCUC [A35U C40U A56G U69A U78C] showed a self-cleavage of 0.1.
For UAACAGGGGGCCACAGCAGAAGCGUUCACGUCGCUGCCCUCGUCAGAUACUGGUGAAUCUGCGAAUUCUGCUGUAUAUCGC [A35U C40U U41C U49A U80G], the self-cleavage was 0.22.
UAACAGGGGGCCACAGCAGAAGCGUUCACGUCGCUGCCCUUGUCAGAUCCUGGUGAAUCUGCGAAUUCUGCUGUAUAUCUC [A35U C40U U49C] showed a self-cleavage of 0.2.
With UAACAGGGGGCCACAGCAGAAGCGUUCACGUCGCUGCCCUUGUCAGAUUCUGGUGAAUCUGCGAAUCCUGCCGUAUAUCUC [A35U C40U U67C U72C] the self-cleavage was 0.39.
Variant UAACAGGGGGCCACAGCAGAAGCGUUCACGUCGCUGCCCUUGUCAGAUUCUGGUGAAUCUGCGAAUUCAGCUGUAUAUCUC [A35U C40U U69A] has a self-cleavage of 0.4.
In the case of UAACAGGGGGCCACAGCAGAAGCGUUCACGUCGCUGCCCCUGUCAGAUUAUGGUGAACCUGCGAAUUCUGCCGUAUACCUC [A35U C50A U58C U72C U78C], the self-cleavage is reported as 0.09.
UAACAGGGGGCCACAGCAGAAGCGUUCACGUCGCUGCCCCUGUCAGAUUCUGGUGAAUCUGAGAAUUCUGCUGCAUAUCUC [A35U C62A U74C] showed a self-cleavage of 0.2.
UAACAGGGGGCCACAGCAGAAGCGUUCACGUCGCUGCCCCUGUCAGAUUCUGGUGAAUCUGUGUAUUCUGCUGUAUACCUC [A35U C62U A64U U78C] showed a self-cleavage of 0.11.
With UAACAGGGGGCCACAGCAGAAGCGUUCACGUCGCUACCCCUGUCAGAUUCUGGUGGAUCAGCGAAUUCUGCUGUAUAUCUC [A35U G36A A56G U60A] the self-cleavage was 0.07.
For UAACAGGGGGCCACAGCAGAAGCGUUCACGUCGCUUCCCCUGUCAGGUCCUGGUGAAUCUGCGAAUUCUGCUGUAUAUCUC [A35U G36U A47G U49C], the self-cleavage was 0.36.
UAACAGGGGGCCACAGCAGAAGCGUUCACGUCGCUUCCCCUGUUAGAUUCUGGUGAAUCUGCGAAUUCUGCUGUAUAUCUC [A35U G36U C44U] gave a self-cleavage of 0.12.
UAACAGGGGGCCACAGCAGAAGCGUUCACGUCGCUUCCCCCGUCAGAUUCUGGUGAAUCUGCGAAUUCUGCUGUAUACCUC [A35U G36U U41C U78C] showed a self-cleavage of 0.17.
UAACAGGGGGCCACAGCAGAAGCGUUCACGUCGCUUCCCCUGUCAGAUUCGGGUGAAUCUGCGAAUUCUGCUGUAUAUCUC [A35U G36U U51G] gave a self-cleavage of 0.09.
For UAACAGGGGGCCACAGCAGAAGCGUUCACGUCGCUGCCCCUAUCAGAUACUGGUGAAUCAGCGAAUUCUGCUGUAUAUCUC [A35U G42A U49A U60A], the self-cleavage was 0.43.
Work on UAACAGGGGGCCACAGCAGAAGCGUUCACGUCGCUGCCCCUGUCAAGUCCUGGUGAAUCUGCGAAUCCUGCCGUAUAUCUC [A35U G46A A47G U49C U67C U72C] yielded a self-cleavage of 0.07.
Work on UAACAGGGGGCCACAGCAGAAGCGUUCACGUCGCUGCCCCUGUCAGAUUCUAGUGAAUCCGCGAAUUCUGCUGUAUAUCUC [A35U G52A U60C] yielded a self-cleavage of 0.11.
In the case of UAACAGGGGGCCACAGCAGAAGCGUUCACGUCGCUGCCCCUGUCAGAUUCUAGUGAAUCUGCGAAUACUGCUGUAUAUCUC [A35U G52A U67A], the self-cleavage is reported as 0.09.
UAACAGGGGGCCACAGCAGAAGCGUUCACGUCGCUGCCCCUGUCAGAUUCUCGUGAAUCUGCGAAUUCCGCUGUAUAUCUC [A35U G52C U69C] showed a self-cleavage of 0.13.
With UAACAGGGGGCCACAGCAGAAGCGUUCACGUCGCUGCCCCUGUCAGAUUCUUGUGAAUCAGCGAAUUCUGCUGUAUAUCUC [A35U G52U U60A] the self-cleavage was 0.16.
Variant UAACAGGGGGCCACAGCAGAAGCGUUCACGUCGCUGCCCCUGUCAGAUUCUUGUGAAUCUGCGAAUUCUGCUGUAUACCUC [A35U G52U U78C] has a self-cleavage of 0.45.
